# Results: the RNAGym collection of RNA variant scans (doi:10.7554/elife.90254)
# The source gives no read counts; variants with many changes may rest on few reads.
# B1: OR4K15 (parent)
# chain: GUUAACGGUCAUAGGCCAUGGAAACUAGGAGCACCAUUUCGCUGCCAGUGAAGAAAUGAACAAAGAAAAUCUGGGCCAGGCAGGCAUCAAAAGAAAUAGUCUUGCGCUCAACCAGAAAGUCUGUAAUCAUUUUAAGGGUA
# Variants of: B1
# Experiment: self-cleavage, relative activity (ratio to wild type); higher = more cleavage; in vitro, sequencing; the parent is a self-cleaving ribozyme
row,Variant,self-cleavage
1,GUUAACGGUCAUGGGCCGUGGAGACUAGGAGCACCAUUUCGCUGCCAGUGAAGAAAUGAACAAAGAAAAUCUGGGCCAGGCAGGCAUCAAAAGAAAUAGUCUUGCGCUCAACCAGAAAGUCUGUAAUCAUUUUAAGGGUA [A13G A18G A23G],0.45
2,GUUAACGGUCAUAGGCCAUGGAAACUAGGAGCACCAUUUCGCUGCCAGUGAAGGAAUGAACGAAGAUAACCUGGGCCAGGCAGGCAUCAAAAGAAAUAGUCUAGCGCUCAACCAGAAAGUCUGUAAUCAUCCUAAGGGUA [A54G A62G A67U U70C U103A U131C U132C],0.08
3,GUUACCGGUCAUAGGCCAUGGAAACUAGGAGCACCAUUUCGCUGCCAGUGAAGGAAUGAACAAAGAAAAUCUGGGCCAGGCAGGCAUCAAAAGUAAUAGUCUUGCGCUCAACCAGAAAGUCUGUAAUCAUUCUAAGGGUA [A5C A54G A94U U132C],1.04
4,GUUAACGGUCAUAGGCCAUGGAAACUAGGAGCACCAUUUCGCUGCCAGUGAAGAGAUGAACAAAGAAAAUCUGGGCCAGCCAGGCAUCAAAAGGAAUAGUCUUGCGCUCAGCCAGAAAGUCUGUAAUCAUUUUAAGGGUA [A55G G80C A94G A111G],0.04
5,GUUAACGGUCAUAGGCCAUGGAAACUAGGAGCACCAUUUCGCUGCCAGUGAAGAAAUGAUCAAAGAAAAUCUGGGCCAGGCAGGCACCAAAAGAAAUAGUCUUGCGCUCAACCGGAAAGUCUGUAAUCAUUUUAAGGGUA [A60U U87C A114G],0.71
6,GUAAACGGUCAUAGGCCAUGGAAACUAGGAGCACCAUUUCGCUGCCAGUGAAGAAAUGAACAAAGAAAAUCUGGGCCAGGCAGGCAUCAAAAGAAAUAGUCUUGCGCUCAACCAGAAAGUCUGAAAUCAUUUCAAGGGUA [U3A U124A U133C],0.53
7,GCUAACGGUCAUAGGCCAUGGAAACUAGGAGCACCAUUUCGCUGCCAGUGAAGAAAUGAACAAAGAAAAUCUGGGCCAGGCAGGCAUCAAAAGAAAUAGUCUUGCGCCCAACCAGGAAGUCUGUAAUCAUUUUAAGGGUA [U2C U108C A116G],0
8,GUUAACGGUCAUAGGCCAUGGAAACUAGGAGCACCACUUCGCUGCCAGUGAAGAAAUGAACAAAGAAAAUCUGGGCCAGGCGGGCAUCAAAAGAAAUAGUCUUGCGCUCAACCUGAAAGUCUGUAAUCAUUUUAAGGGUA [U37C A82G A114U],0.07
9,GUUAACGGUCAUAGGCCAUGGGAACUAGGAGCACCACUCCGCUGCCAGUGAAGAAAUGAACAAAGAAAAUCUGGGCCAGGCAGGCAUCAAAAGAAAUAGUCUUGCGCUCAACCAGUAGGUCUGUAAUCAUUUUAAGGGUA [A22G U37C U39C A116U A118G],0.11
10,GUUAACGGUCAUAGGCCAUGGAAACUAGGAGCACCAUUUCGCUGCCAGUGAAGAAUUGAACAAAGAAAAUCUGGGCCAGGCAGUCAUCAAAGGAAAUAGUCUUGCGCUCAACCAGAGAGUCUGUAAUCAUUUUAAGGGUA [A56U G84U A92G A117G],0.63
11,GUUAACGGUCAUAGGCCAUGGAGACUAGGGGCACCAUUUCGCUGUCAGUGAAGAAAUGAACAAUGAAAAUCCGGGCCAGGCAGGCUUCAAAAGAAAUAGUCUUGCGCUCAACCAGAAAGUCUGUAAUCAUUUUAAGGGUA [A23G A30G C45U A64U U72C A86U],0.07
12,GUUAACGGUCAUAGGCCGUGGAAACUAGGAGCACCAUUUCGCUGCCAGUGAGGAAAUGAACAAAGAAAAUCUGGGCCAGGCAGGCAUCAAAAGAAAUAGUCUUGCGCUCAACCAGAAAGUCUGUAAUUAUUUUAAGGGUA [A18G A52G C128U],1.82
13,GUUAACGGUCAUAGGCCAUGGAAACUAGGAGCACCAUUUCGCUGCCAGUGAAGAAAUGAACAAAGAAAAUCUGGGCCAGGCAGGCACCGAAAGAAAUAGUCUUGCGCUCAACCAGAAAGUCUAUAAUCAUUUUAAGGGUA [U87C A89G G123A],0.69
14,GUUAACGGUCAUAGGCCAUGGAAACUAGGAGCACCGUUUCGCAGCCAGUGAAGAAAUGAACAAAGAGAAUCUGGGCCAGGCAGGCAUCAAAAGAAAUAGUCUUGCGCUCAACCAGAAAGUCUGUAAUCAUCUUAAGGGUA [A36G U43A A67G U131C],2.44
15,GUUAGCGGUCAUAGGUCAUGGAAACUAGGAGCACCAUUUCGCUGCCAGUGAAGAAAUGAACAAAGAAAAUCUGGGCCAGGCAGGCAUCAAAAGAAAUAGUCUUGCGCUCAACCAGAAAGUCUGUAAUCGUUUUAAGGGUA [A5G C16U A129G],1.75
16,GUUAACGGUCAUAGGCCAUGGAAGCUAGGAGCACCAUUUCGCUGCCAGUGAAGAAAUGAACAAAGUAAAUCUGGGCCAGGCAGGCAUCAAAAGAAGUAGUCUUGCGCUCAACCAGAAAGUCUGUAAUCAUUUUAAGGGUA [A24G A66U A96G],1.16
17,GUUAACGGUCAUAGGCCAUGGAACCUAGGAGCACCACUUCGCAGCCAGUGAAGAAAUGAACAAAGAAAAUCUGGGCCAGGCAGGCAUCAAAAGAAAUAGUCUUGCGAUCAACCAGAAAGUCUGUAAUCAUUUUAAGGGUA [A24C U37C U43A C107A],0.04
18,GUUAACGGUCAUAGGCCUUGGAAACUAGGAGCACCAUUUCGCUGCCUGUGAAGAAAUGAACAAAGAAAAUCUGGGCCAGGUAGGCAUCAAAAGAAAUAGUCUUGCGCUCAACCAGAAAGUCUGUAAUCAUUUUAAGGGUA [A18U A47U C81U],0.14
19,GUUAACGGUCAUAGGCCAUGGAAACUAGGAGCACCAUUCCGCUGCCAGUGAAGAAAUGAACAAAGUAAAUCUGGGCCAGGCAGGCAUCAAAAGAAAUAGUCUUGCGCUCAACCAGGAAGUCUGUAAUCAUUUUAAGGGUA [U39C A66U A116G],1.04
20,GUUAACGGUCAUAGGCCAUGGAAACUAGGAGCACCAUUCCGCUGCCAGUGAAGAAAUGAACAAAGAAAAUCUGGGCCAGGCAGGCAUCAAAAGAAAUAGUCUUGCGCUCAACCAGAAGGUCGGUAAUCAUUUUAAGGGUA [U39C A118G U122G],1.78
21,GUUAACGGUCAUAGGCCAUGGAAACUAGGAGCACCAUUUCGCUGCCAGUGAAGAAAUGAACAAAGAAAAUCUGGGCCAGGCAGGCAUCAGAAGAAAUAGUCUUGCGCUCAACCAGAGAGUCUGUAAUCAUUUUAAGGAUA [A90G A117G G138A],1.81

row,Variant,self-cleavage
1,GUUAACGGUCAUAGGCCAUGGAAACUAGGAGCACCGUUUCGCUGCCAGUGAAGAAAUGAACAAAGAAAAUCUGGGCCAGGCAGGCAUCAAAGGAAAUAGUCUUGCGUUCAACCAGAAAGUCUGUAAUCAUUUUAAGGGUA [A36G A92G C107U],0.02
2,GUUAACGGCCAUAGGCCAUGGAAACUAGGAGCACCAUCUCGCUGCCGGUGAAGAAAUGAACAAAGAAAAUCUGGGCCAGGCAGGCAUCAAAAGAAAUAGUCUUGCGCUCAACCAGAAAGUCUGUAAUCAUUUUAAGGGUA [U9C U38C A47G],1.76
3,GUUAACGGCCAUAGGCCAUGGAAACUAGGAGCACCAUUUCGCAGCCAGUGAAGAAAUGAACAAGGAAAAUCUGGGCCAGGCAGGCAUCAAAAGAAAUAGUCUUACGCUCAACCAGAAAGUCUGUAAUCAUUUUAAGGGUA [U9C U43A A64G G104A],0.1
4,GUUAACGGUCAUAGGCCAUGGAAACUAGGAGCACCAUUUCGCUGCCAGUGAAGAAAUGGACAAAGAAAAUCAGGGCCAGGCGGGCAUCAAAAGAAAUAGUCUUGCGCUCAACCAGAAAGUCUGUAAUCAUUCUAAGGGUA [A59G U72A A82G U132C],0.09
5,GUUAACGAUCACAGGCCAUGGAAACUAGGAGCACCAUUUCGCUGCCAGUGAAGAAACGAACAAAGAAAAUCUGGGCCAGGCAGGCAUCAAAAGAAAUAGUCUUGCGCUCAACCAGAAAGUCUGUGACCAUUUUAAGGGUA [G8A U12C U57C A125G U127C],0.16
6,GUUAACGGUCAUAGGCCAUGGAAACUAGGAGCACCAUUUCGCUGCCAGUGAAGAAAUGAACAAAGAAACUCUGGGCCAGGCAGGCAUCAAAAGAAAUAGUCUUGCGCUCAACCAGAAAGUUUGUAGUCAUUUUAAGGGUA [A69C C121U A126G],1.29
7,GUUAACGGUCAUAGGCCGUGGAAACUAGGAGCACCAUUUCGCUGCCAGUGGAGAAAUGAACGAAGAAAAUCUGGGCCAGGCAGGCAUCAAAAGAAAUAGUCUUGCGCUCAACCAGAAAGUCUGUAAUCAUUUUAAGGGUA [A18G A51G A62G],1.18
8,GUUAACGGUCAUAGGCCAUGGAAACUAGGAGCACCAUUUCGCUGCCAGUGAAGAAAUGAACAAAGAAGAUCUGGGCCAGGCAGGCAUCAAGAGAAAUAGUCUUGCGCUCAACCAGAGAGUCUGUAAUCAUUUUAAGGGUA [A68G A91G A117G],1.47
9,GUUAACGGUCAUAGGCCAUGGAAACUAGGAGCACCAUUUCGCCGCCAGUGAAGAAAUGAGCAAAGAAAAUCUGGGCCAGGCAGGCAUCAAGAGAAAUAGUCUUGCGCCCAGCCAGAAAGUCUGUAAUCAUUUCAAGGGUA [U43C A60G A91G U108C A111G U133C],0
10,GUUAACGGCCAUAGGCCAUGGAAACUAGGAGCACCAUUUCGCUGCCAGUGAAGAAAUGAGCAAAGAAAAUCUGGGCCAGGCAGGCAUCAAAAGAAAUAGUCCUGCGCUCAACCAGAAAGUCUGUAAUCAUUUUAAGGGUA [U9C A60G U102C],1.74
11,GUUAACGGUCAUAGGCCAUGGAAACUAGGAGCAUCAUUUCGCUGCCAGCGAAGAAAUGAACAAAGAAAAUCAGGGCCUGGCAGGCAUCAAAAGAAAUAGUCUUGCGCUCAACCGGAAAGUCUGUAAUCAUUUUAAGGGUA [C34U U49C U72A A78U A114G],0.05
12,GUUAACGGUCAUAGGCCAUGGAGACUAGGAGCACCAUUUCGCGGCCAGUGAAGAAAUGAACAAAGAAAAUCUGGGCCAGGCAGGCAUCAAAGGAAAUAGUCUGGCGCUCAACCAGAAAGUCUGUAAUCAUUUUAAGGGUA [A23G U43G A92G U103G],0.07
13,GUUAACGGUCAUAGGCCAUGGAAACUAGGAGCACCAUUUCGCUGCCAGUGUAGAAAUGAACAAAGAAAAUCUGGGCCAGGCAGGCAUCAAAAGAAAUAGUCUUGCGCUCAGCCAGAAGGUCUGUAAUCAUUUUAAGGGUA [A51U A111G A118G],0
14,GUUAACGGUCGUAGGCCAUGGAAACUAGGAGCACCGUUUCGCUGCCAGUGAAGAAAUGAACAAAGAAAAUCUGGGCCAGGCAGGCAUCAAAAGAAAUGGUCUUGCGCUCAACCAGAAAGUCUGUAAUCAUUUUAAGGGUA [A11G A36G A98G],0.47
15,GUUAACGGUCAUAGGCCAUGGAAACUAGGAGCACCAUUUCACUGCCAGUGAAGAAAUGGACAAAGGAAAUCUGGGCCAGGCAGGCAUCAAGAGAAAUAGUCUUGCGCUCAACCAGAAAGUCUGUAAUCAUUUUAAGGGUA [G41A A59G A66G A91G],0.84
16,GUUAACGGUCAUAGGCCAUGGAAACUAGGAGCACCGUUUCGCUGCCUGUGAAGAAAUGAACAAAGAAAAUCUGGGCCAGGCAGGCAUCAAAAGAAGUAGUCUUGCGCUCAACCAGAAAGUCUGUAAUCAUUUUAAGGGUA [A36G A47U A96G],0.66
17,GUUAACGGUCAUAGGCCAUGGAAGCUAGGAGCGCCAUUUCGCUGCCGGUGAAGAAGUGAACAAAGAAAAUCUGGGCCAGGCAGGCAUCAAAAGAGAUAGUCUUGCGCUCAACCAGAAAGUCUGUAAUCAUUUUAAGGGUA [A24G A33G A47G A56G A95G],0.88
18,GUUAACGGUCAUAGGCCAUGGAAACUAGGAGCACCUUUUCGCUGCCAGUGAAGAAAUGAGCAAAGAAGAUCUGGGCCAGGCAGGCAUCAAAAGAAAUAGUCUUGCGCUCAACCAGAAAGUCUGUAAUCAUUUUAAGGGUA [A36U A60G A68G],0.82
19,GUUAACGGUCAUAGGCCAUGGAAACUAGGAGCACCAUUACGCUGCCAGUGUAGAAAUGAACAAAGAAAAUCCGGGCCAGGCAGGCAUCAAGAGAAAUAGUCUUGCGCUCAACCAGAAAGUCUGUAAUCAUUUUAAGGGUA [U39A A51U U72C A91G],0.09
20,GUUAACGGUCAUAGGCCAUGGAAACUAGGAGCACCAUCUCGCUGCCAGUGAAGAAAUGAACAAAGAGAAUCUGGGCCAGGCAGGAGUCAAAAGAAAUAGUCUUGCGCUCAACCAGAGAGUCUGUAAUCAUUUUAAGGGUA [U38C A67G C85A A86G A117G],0.58
